In publication PMC2758704:
No constants are given. Whether binding was seen depends on the method and setting. In cells and extracts the contact can be indirect. Some entries that bind do so weakly or less than the wild type. For part of these data: Where a sequence is shown, tags or fusion partners need not be part of it.

Protein sequences, listed by entry. Tags and fused reporters are not part of them.
UniProt P09211: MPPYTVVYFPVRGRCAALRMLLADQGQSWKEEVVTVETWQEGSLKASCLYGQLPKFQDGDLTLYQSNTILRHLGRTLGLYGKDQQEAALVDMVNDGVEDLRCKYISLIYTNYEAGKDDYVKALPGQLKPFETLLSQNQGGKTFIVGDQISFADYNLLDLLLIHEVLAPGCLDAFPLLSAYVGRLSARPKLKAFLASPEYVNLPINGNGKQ
UniProt P18754: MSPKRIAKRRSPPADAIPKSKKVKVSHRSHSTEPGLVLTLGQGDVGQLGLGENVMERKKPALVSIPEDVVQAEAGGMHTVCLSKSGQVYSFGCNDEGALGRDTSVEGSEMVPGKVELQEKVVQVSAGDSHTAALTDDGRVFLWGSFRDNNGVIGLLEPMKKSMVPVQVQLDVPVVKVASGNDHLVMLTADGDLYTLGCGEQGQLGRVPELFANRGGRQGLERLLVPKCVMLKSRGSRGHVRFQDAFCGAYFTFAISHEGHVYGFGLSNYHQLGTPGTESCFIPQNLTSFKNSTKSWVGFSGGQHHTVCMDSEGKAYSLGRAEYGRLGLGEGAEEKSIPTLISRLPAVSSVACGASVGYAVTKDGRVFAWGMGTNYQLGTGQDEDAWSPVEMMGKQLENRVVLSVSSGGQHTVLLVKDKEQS
UniProt P03129: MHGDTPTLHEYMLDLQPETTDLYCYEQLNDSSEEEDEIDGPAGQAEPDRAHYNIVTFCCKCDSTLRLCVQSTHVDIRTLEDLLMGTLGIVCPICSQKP
UniProt P06788: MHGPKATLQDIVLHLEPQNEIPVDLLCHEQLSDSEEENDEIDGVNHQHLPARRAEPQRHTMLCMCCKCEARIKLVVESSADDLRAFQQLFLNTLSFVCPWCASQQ

Columns and labels:
[1] = target: N-6His-GSTP1 recombinant protein (human) (UniProt P09211); test: pull-down; Ni-NTA agarose beads coupled to 4 µg of recombinant N-6His GSTP1 or N-6His RCC1; 35S-labelled in vitro translated E7 proteins added; SDS-PAGE and autoradiography; only the target purified
[2] = target: N-6His-RCC1 recombinant protein (regulator of chromosome condensation 1) (UniProt P18754); test: as above
[3] = target: HPV-16 E7 expressed endogenously in CaSki and SiHa cells (Human Papillomavirus 16 (HPV-16) (endogenous in CaSki and SiHa)) (UniProt P03129); test: co-IP; cell lysates (50 mM Tris-Cl pH 7.4, 5 mM EDTA, 250 mM NaCl, 50 mM NaF, 0.1% Triton X-100); immunoprecipitation with anti-T7 Tag, anti-HPV-16 E7, anti-HA or anti-GSTP1 antibody and protein A- or G-Sepharose; Western blot
[4] = target: T1, recombinant S. japonicum GST-pRb protein (human) (UniProt P06400); test: pull-down; glutathione-Sepharose 4B coupled to 1 µg of S. japonicum GST-pRb or S. japonicum GST; 35S-cysteine-labelled in vitro translated E7 proteins added; SDS-PAGE and autoradiography; only the target purified
T1 sequence: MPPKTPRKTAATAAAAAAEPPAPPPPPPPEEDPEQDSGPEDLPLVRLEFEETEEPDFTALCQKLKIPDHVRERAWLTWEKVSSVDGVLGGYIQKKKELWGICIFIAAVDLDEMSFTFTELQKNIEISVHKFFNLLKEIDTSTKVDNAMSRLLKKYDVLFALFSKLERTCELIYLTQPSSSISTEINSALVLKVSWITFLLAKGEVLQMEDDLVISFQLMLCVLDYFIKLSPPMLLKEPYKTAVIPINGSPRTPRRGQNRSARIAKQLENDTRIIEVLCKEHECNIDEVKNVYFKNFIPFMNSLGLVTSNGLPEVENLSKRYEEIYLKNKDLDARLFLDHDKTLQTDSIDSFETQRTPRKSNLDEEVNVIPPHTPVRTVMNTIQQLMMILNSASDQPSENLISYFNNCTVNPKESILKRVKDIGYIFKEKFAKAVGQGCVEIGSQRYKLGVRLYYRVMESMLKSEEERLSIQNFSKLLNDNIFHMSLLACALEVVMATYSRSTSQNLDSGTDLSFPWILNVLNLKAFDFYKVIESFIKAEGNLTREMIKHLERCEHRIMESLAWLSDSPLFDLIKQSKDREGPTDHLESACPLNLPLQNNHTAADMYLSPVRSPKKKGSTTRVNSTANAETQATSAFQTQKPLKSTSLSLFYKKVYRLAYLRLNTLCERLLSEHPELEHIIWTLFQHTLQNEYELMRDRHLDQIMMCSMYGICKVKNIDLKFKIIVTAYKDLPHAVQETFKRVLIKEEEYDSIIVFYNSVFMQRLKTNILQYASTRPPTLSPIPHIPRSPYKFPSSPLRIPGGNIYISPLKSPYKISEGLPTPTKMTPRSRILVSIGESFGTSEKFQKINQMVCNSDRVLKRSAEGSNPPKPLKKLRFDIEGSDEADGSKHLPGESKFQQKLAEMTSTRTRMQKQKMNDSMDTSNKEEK

| Substance | binding [1] | binding [2] | binding [3] | binding [4] |
| --- | --- | --- | --- | --- |
| radiolabeled IVT HPV-18 E7 (from UniProt P06788 1-105) | binds | no binding |  |  |
| glutathione S-transferase P1-1 (GSTP1), endogenous (from UniProt P09211 1-210) |  |  | binds |  |
| radiolabeled in vitro translated (IVT) HPV-16 E7 (from UniProt P03129 1-98) | binds | no binding |  | binds |
